# Data reported in PubChem BioAssay AID686978 (National Center for Advancing Translational Sciences (NCATS), 2013).
# “And” between values parts separate entries of the source, which are not always exact repeats. Equal values may be shown once. Hit rate of the full screen: of about 420,000 compounds, about 64,000 (15%) were called active. The shares of active, inactive and inconclusive entries below differ from those in the screen. Calls follow the shape of the dose curve; as a rule, active = well fitted inhibition curve with a large enough effect; inconclusive = small, poorly fitted or top-dose-only effect; inactive = flat fitted curve, though single readings scatter. Where the call is inconclusive, the potency comes from a doubtful curve fit.
# Assay: qHTS for Inhibitors of human tyrosyl-DNA phosphodiesterase 1 (TDP1): qHTS in cells in absence of CPT; also: nearly all actives have a fitted effect of over 55% in size
# Details: DT40 Tdp1-/- hTDP1 cells, no CPT, ATP luminescence, 48 h; activity change, negative = growth inhibition: at 46.2 µM (top of the series)
# Summary of the method: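 Chicken DT40 Tdp1-/- cells complemented with human TDP1, screened without camptothecin (DMSO vehicle only), 400 cells/well. Compounds pin-transferred, cells incubated at 37 °C for at least 48 hr. Growth read as ATP-dependent luminescence (CellTiter-Glo, 30 min at RT).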
# % is scaled to controls: 0 for no effect and ±100 for the full control effect; potency is read from the fitted curve at half-maximal effect; tags tell the direction and shape of the fitted curve.
Structure (SMILES),Potency,"activity change, negative = growth inhibition"
Cc1ccccc1Cn1nc(C)c(NC(=O)c2cc(CC(C)C)on2)c1C,"inconclusive: 13 µM [inhibitor, partial curve] and inconclusive: 18.4 µM [inhibitor, partial curve, poor fit]",–
C=CCNc1nc2c(c(=O)[nH]c(=O)n2C)n1CC(O)COc1ccc2ccccc2c1 (configuration not stated),–,inactive: 1.27%
CCOc1ccc(NC(=O)Cn2c(=O)n(Cc3ccco3)c(=O)c3ccc(C(=O)NC4CCCC4)cc32)cc1,–,inactive: -27.4%
COC(=O)CCCC1=CC2=C(c3ccccc3)C(=O)C(C)(OC(=O)C3CCCC3)C(=O)C2=CN1Cc1ccc2c(c1)OCO2 (configuration not stated),"inconclusive: 29.1 µM [inhibitor, single point]",–
COc1ccc(Cl)cc1NC(=O)CCN1C(=O)C2CC=CCC2C1=O (configuration not stated),"inconclusive: 0.0065 µM [inhibitor, full curve, poor fit]",–
CCCN(CC(=O)Nc1ccc(Cl)cc1Cl)C(=O)/C=C/c1ccco1,active: 16.4 µM,–
Cc1ccc2nc(-c3ccc(NC(=S)NC4CC(C)(C)NC(C)(C)C4)cc3)sc2c1,active: 6.51 µM,–
CC1(C)CC(=O)C2=C(C1)Nc1ccccc1S2,"inconclusive: 20.6 µM [inhibitor, single point]",–
CCOc1ccc(NC(=O)Cn2nc(SC)c(S(=O)(=O)c3ccccc3)c2N)cc1,"inconclusive: 29.1 µM [inhibitor, single point]",–
COc1cc(C2C(=O)c3ccccc3C2=O)ccc1O,"inconclusive: 23.1 µM [inhibitor, single point]",–
O=[N+]([O-])c1ccccc1S(=O)(=O)N1CCSCC1,–,inactive: 8%
C/C(=N/NC(=O)c1ccco1)c1ccc(NC(=O)c2ccc(Br)o2)cc1,"inconclusive: 1.03 µM [inhibitor, full curve]",–
CCC(C)(O)c1[nH]c2ccc(C#N)cc2c1C (configuration not stated),"inconclusive: 29.1 µM [inhibitor, single point]",–
Cn1c(-c2cccc([N+](=O)[O-])c2)cnc1NCc1ccc(C#N)cc1,"inconclusive: 14.6 µM [inhibitor, single point]",–
Cc1ccc(S(=O)(=O)Nc2cccc3c2O[C@@H](CN(C)C(=O)Nc2ccc4c(c2)OCO4)[C@H](C)CN([C@@H](C)CO)C3=O)cc1,"inconclusive: 14.6 µM [inhibitor, single point]",–
S=C(NCc1ccncc1)Nc1ccc(Cl)c(Cl)c1,"inconclusive: 32.6 µM [inhibitor, single point]",–
CCCCOC(=O)C(C)Oc1ccc(=O)n(-c2ccccc2)n1 (configuration not stated),"inconclusive: 8.2 µM [inhibitor, partial curve, poor fit]",–
O=C(CCS(=O)(=O)c1nc(-c2cccs2)cc(C(F)(F)F)n1)Nc1ccc(F)c(Cl)c1,active: 9.2 µM,–
COc1ccc(NC(=O)NCc2ccccn2)cc1,–,inactive: -7.5%
CC(=O)c1nn(-c2cccc(Br)c2)cc1C(=O)c1ccc(Cl)cc1,active: 7.31 µM,–
Cc1ccc(NC(=O)C2CCN(S(=O)(=O)c3ccc4c(c3)CCCN4C(=O)C3CCC3)CC2)cc1,"inconclusive: 29.1 µM [inhibitor, single point]",–
C#CC(=O)N(c1cc(OC)ccc1OC)C(C(=O)NC1CCCC1)c1cccs1 (configuration not stated),active: 2.06 µM,–
Cc1cc([N+](=O)[O-])nn1CC(=O)c1ccccc1,–,inactive: -0.254%
COc1ccc(C(O)Cc2nccn2C)cc1 (configuration not stated),–,inactive: -15.8%

Structure (SMILES),Potency,"activity change, negative = growth inhibition"
Cc1ccccc1-c1cncnc1N(C)Cc1ccco1,–,inactive: -11.9%
CCCCCCCCCCCCCCCCCCN(CCCCCCCCCCCCCCCCCC)c1ccc(C=O)cc1,–,inactive: 1.41%
O=C(CCSc1nnc2scc(-c3ccccc3)n12)Nc1nc(-c2ccccc2)ns1,–,inconclusive: -37% [inhibitor]
CCN(CC)S(=O)(=O)c1ccc(C(=O)OCCN2C(=O)c3cccc4c(N5CCOCC5)ccc(c34)C2=O)cc1,active: 18.4 µM,–
CCOC(=O)c1ccc(NC2=CC(=O)C(=O)c3ccccc32)cc1,active: 23.1 µM,–
CCN(CC)C(=O)C(Oc1ccc(C)nc1[N+](=O)[O-])c1ccccc1 (configuration not stated),"inconclusive: 9.2 µM [inhibitor, partial curve]",–
CC(C)C(NS(=O)(=O)c1ccc2c(c1)oc(=O)n2C)C(=O)NCc1ccccc1 (configuration not stated),–,inactive: 2.4%
COc1ccccc1NC(=O)CN1CCN(c2ccccc2F)CC1,"inconclusive: 14.6 µM [inhibitor, single point]",–
COc1ccc(Nc2c(-c3ccc(F)cc3)nc3nc(C)cc(C)n23)cc1,active: 16.4 µM,–
COc1ccc(CNc2ccc(S(N)(=O)=O)cc2)c(OC)c1OC,–,inactive: -7.56%
N#Cc1c(NC(=O)CCn2cnc3ccccc3c2=O)oc(-c2ccccc2)c1-c1ccccc1,"inconclusive: 20.6 µM [inhibitor, single point]",–
CCN(CC)c1ccc(NC(=O)CN2CCN(S(=O)(=O)c3cc(Cl)ccc3OC)CC2)cc1,active: 16.4 µM,–
Cc1ccc(C)c(S(=O)(=O)N2CCN(C(=O)c3ccnn3C)CC2)c1,–,inactive: -2.38%
CN(C(=O)C1CCN(c2ncnc3c2nc2n3CCCCC2)CC1)c1ccccc1F,"inconclusive: 23.1 µM [inhibitor, single point]",–
Cn1cccc1C1CCCN1CC(=O)Nc1ccc(C(N)=O)cc1 (configuration not stated),–,inactive: 10.1%
COc1ccc(NC(=O)CSc2nc(-c3ccccc3)[nH]c2-c2ccccc2)cc1OC,active: 8.2 µM,–
COc1cccc(NC(=O)c2sc3ncn(CC(=O)N4CCN(c5ccccn5)CC4)c(=O)c3c2C)c1,"inconclusive: 25.9 µM [inhibitor, single point]",–
Nc1cc2c(cc1O)CCCC2,"inconclusive: 7.31 µM [inhibitor, partial curve]",–
COC(=O)c1ccc2nc(-c3ccc(C#N)cc3)c(Cc3ccsc3)n2c1,active: 23.1 µM,–
Cc1oc(-c2ccc(C(=O)NCc3ccccc3F)cc2)nc1COc1ccccc1,"inconclusive: 18.4 µM [inhibitor, single point]",–
CC(=O)n1nc(-c2ccccc2)nc1NCc1cccs1,–,inactive: -10.8%
COc1ccc(Cl)cc1NC(=O)CN1CCC(NC(=O)C2CC2)CC1,"inconclusive: 16.4 µM [inhibitor, partial curve, poor fit]",–
O=C1C(=NO)CCc2ccccc21,active: 20.6 µM,–
Cc1onc(-c2ccccc2)c1C(=O)N1CCN(CCc2ccccc2)CC1,"inconclusive: 12.6 µM [inhibitor, single point]",–

Structure (SMILES),Potency,"activity change, negative = growth inhibition"
Cc1cc(C)nc(SCc2ccc(C(=O)N/N=C/c3ccccn3)cc2)n1,active: 20.6 µM,–
O=C(C[n+]1cccc(Cl)c1)c1ccc(F)cc1,–,inactive: -18%
S=c1[nH]nc(-c2ccncc2)n1/N=C/C(Cl)=C\c1ccccc1,active: 8.2 µM,–
O=C(COc1ccccc1C(=O)NCc1ccccn1)Nc1ccc(Br)cc1,"inconclusive: 23.1 µM [inhibitor, single point]",–
N#Cc1sc2nc(N3CCCCC3)c3c(c2c1N)CCCC3,"inconclusive: 29.1 µM [inhibitor, single point]",–
Cc1cc(NC(=O)CSc2nc(CC(C)(C)C)nc3c2c(=O)n(C)c(=O)n3C)no1,"inconclusive: 20.6 µM [inhibitor, single point]",–
O=C(NNC(=S)Nc1ccccc1Cl)c1ccccc1,–,inactive: -0.531%
Cc1nc2ccc(S(=O)(=O)NCC(=O)N3CCN(c4ccccn4)CC3)cc2s1,–,inconclusive: -34% [inhibitor]
COc1cccc(NC(=O)Cn2nnc(C(=O)NCCc3ccccc3)c2N)c1,inactive,–
CC1CN(S(=O)(=O)c2cccc(C(=O)Nc3ccccc3N3CCOCC3)c2)CC(C)O1 (configuration not stated),"inconclusive: 18.4 µM [inhibitor, partial curve, poor fit]",–
Cc1noc(C)c1C(=O)Nc1nc(-c2ccc([N+](=O)[O-])cc2)cs1,"inconclusive: 8.2 µM [inhibitor, partial curve]",–
O=C(Nc1cccc(C(=O)OCc2cc(=O)n3c4c(sc3n2)CCCC4)c1)c1cccc(Cl)c1,"inconclusive: 23.1 µM [inhibitor, partial curve]",–
CCOC(=O)CSc1nnc2c3ccccc3n(C)c2n1,"inconclusive: 23.1 µM [inhibitor, single point]",–
CCOC(=O)c1ccc2c(c1)nc(SCC(=O)N1CCCCC1)n2CC,"inconclusive: 25.9 µM [inhibitor, single point]",–
CCOC(=O)/C(=C\Nc1ccc(OC(F)(F)F)cc1)Sc1ncc(C(F)(F)F)cc1Cl,active: 11.6 µM,–
Cn1cc(C(=O)Nc2ccc(C#N)cc2)c2ccccc2c1=O,"inconclusive: 20.6 µM [inhibitor, single point]",–
CCOc1ccc2oc(C(=O)NCc3nc4ccccc4[nH]3)c(C)c2c1,"inconclusive: 29.1 µM [inhibitor, single point]",–
CC(=O)N1CCc2c(sc(NC(=O)CCS(=O)(=O)c3ccccc3)c2C#N)C1,active: 14.6 µM,–
CC1(C(=O)NS(=O)(=O)c2ccc(Br)cc2)CCN1C(=O)C/C=C/c1ccccc1 (configuration not stated),–,inactive: -5.03%
COc1ccc(CCn2c(=O)c3cccnc3n(CC(=O)Nc3ccc(C)cc3C)c2=O)cc1OC,"inconclusive: 10.3 µM [inhibitor, partial curve]",–
CC1(C)Cc2c(sc(NC(=O)Nc3ccccc3)c2C(N)=O)CO1,"inconclusive: 29.1 µM [inhibitor, single point]",–
O=C(OCc1csc(-c2ccccc2)n1)c1ccccc1O,–,inactive: 5.49%
CCOc1cc(C2Nc3ccccc3C(=O)N2c2ccccc2)ccc1O (configuration not stated),–,inactive: -5.36%
COc1cccc(COC(=O)C2CCN(S(=O)(=O)c3ccc(Cl)cc3)CC2)c1OC,–,inactive: -25.1%
